Test results published in the supplement of paper PMC10126150.
Sequences with one replicate were seen in a single cluster, so their values are uncertain.

Test system: ATP
Assay: switch fluorescence ratio, 500 uM ATP over buffer (Cy3 cluster intensity, sum of 5 cycles each) (fold (ratio)); higher = stronger signal-on switching upon ATP binding; sequences stand for … in TCGTCGGCAGCGTCAGATGTGTATAAGAGACAGTTTTTTTTTTTTTTTTTTTTTTTTT…TC
Conditions: aptamer strand: ATP DNA aptamer (quencher-CACCTGGGGGAGTATTGCGGAGGAAGG + anchor), 100 nM annealed; ATP concentration: 500 uM; one replicate
Method in brief: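 Clusters carrying Cy3-labelled switching strands on a modified Illumina MiSeq flow-cell were annealed to 100 nM quencher-labelled ATP aptamer and imaged in selection buffer. They were imaged again after 15 min with 500 uM ATP at 22 °C, over five buffer/ATP cycles with NaOH stripping and re-annealing in between. For each cluster, the fluorescence ratio is the summed Cy3 intensity of the target cycles divided by that of the buffer cycles, averaged per switch-domain sequence. Clusters outside 100-1000 RFU were left out.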
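Also: ATP exposure 15 min at 22 °C before imaging.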

Sequence | switch fluorescence ratio
ATTGTAGTGG | 1.02
AATATCAGTT | 0.963
CCAGCGAGGA | 1.08
GTGGTCTGGT | 0.952
CACTAGTGCC | 1.02
TACGTATCGA | 1.09
AGCCGAATTA | 0.998
TCATATAACA | 1.01
TTTGAAGTCG | 1.02
TGGAGCCACG | 1.04
TACGAACTGG | 1.31
GGGTCTGCGT | 0.975
AGCTTCTAGC | 1.01
AGCAAAATAA | 1.11
TAAATGCGTC | 1.08
GTTTGACCGT | 0.948
CGACCAGCCT | 1.07
CGAAATATTG | 1.05
GCATACATTC | 0.993
CCTTCTGTTA | 1.07
TGTCTAAGTA | 0.966
GGACATATA | 1.01
AGCGAACTGA | 1.03
AGGGTGTCGT | 1.05
CATGACCGTA | 1.1

Sequence | switch fluorescence ratio
ATGGAAGAGC | 1.02
TGCGAGTGGT | 1.02
CGGTGACCTC | 1.02
CCTTGCTTTA | 1.23
TTTACGGTGT | 0.962
CAATCATTAC | 1.13
GTTACGAGCA | 1.01
CAAAGCTTTC | 1.72
TCTACTGTCT | 0.991
ATCAATCCCC | 1.07
TCAGTTGGGT | 0.948
AAGACCAGAT | 0.961
CCTTTTTGA | 0.989
GATGGGGT | 0.99
ACAGACGCCA | 1.24
AGCGACGACA | 1.26
GCGTGGTACG | 1.51
CACCTAATTG | 1.02
TCCTTAAATC | 1.14
GAAATAGATT | 0.968
GGCCGAACT | 1.14
GCCTCGTACC | 1.09
CGCCTAGACT | 1.11
AAGGTTAAAC | 0.951
CGGCGAGCAA | 2.24

Sequence | switch fluorescence ratio
CGATATTAGG | 1.01
TCGTACTGAG | 1.06
CCCACGCAGG | 3.61
TACTAAGTCA | 0.978
TATCCAACT | 0.977
TTTCCATGAA | 0.973
TATCGGCCTT | 1.06
CATGACTACG | 0.939
GAGAAATTTA | 1.01
GGGGCACCTT | 0.999
TTTCAAGATC | 0.988
GGTGGGTGAC | 1.01
GCCGCTGCAC | 1.34
ATTAGGTCAC | 1.01
CTCGATTCGA | 1.04
TTTCCCAACT | 1.18
GTTTGGAGCC | 1.01
TAAGGGTGG | 0.964
GTGTACATCC | 1.01
TCCCACCCCA | 1.05
ACTACAGTAT | 1.02
TCGATGCTGC | 1.04
AGGCTCGGAA | 1.1
ACATGGGCTT | 0.962
TTTCGCGTGC | 1.11

Sequence | switch fluorescence ratio
CGAGCATGGG | 1.13
ATTGACGGGA | 1.06
CTTAGAAGCT | 0.984
ATCATAGCCC | 1.04
ATAGGACTCG | 0.981
GGTGTAAATC | 1.01
AGTGTTGAGT | 0.976
GCTGTACCTC | 1.1
ATCTCAATCG | 1.02
GGCGGGCCTG | 1
GAAAGCGCGC | 0.966
CAATCTCGCT | 0.994
TAGAGCACAG | 1.05
GTCTGAAGTT | 0.922
TTGCGACGTA | 0.995
TGGGCCAGAG | 1.05
CGGGGGTTTA | 1.08
CATGCGATGT | 1.02
GACTCTTATG | 1.06
TTGAAAATGC | 1
GATCGGCCTA | 1.01
ATGACAGGTT | 0.945
TGCTTATCGT | 1.04
GATCACTTCA | 1.03
GCTTCCGGTG | 2.03

Sequence | switch fluorescence ratio
ATATCTACAG | 0.992
TATCCCAGGT | 1.21
CATTCCTACG | 4.54
CTTTGTTTGC | 1.07
TCAGAGGGTG | 1.09
GACGTATGCT | 0.985
GACGCAGACT | 3.81
AATCTAGGCA | 0.985
CCTGAATGAG | 0.973
AAACCGGCGT | 1.02
CTAATAGATC | 1.01
ATGAGTTA | 0.989
CGTCCCAAGA | 2.71
GGCTGAACTG | 1.06
GTGGTTAAAG | 0.999
TAATTTCTAG | 1.01
AAGGTAAACT | 0.977
GTCGGCATTC | 1.06
CTGGGTGCTG | 0.954
TATGAGTTTC | 1.01
ATGCGTGGTT | 0.98
TTGAAGTTTG | 0.995
CTTTTGCTGG | 0.983
TCGTTGTG | 0.985
ATGTCACGGG | 1.03

Sequence | switch fluorescence ratio
TGTTGGGATA | 0.989
ATTCTGACTT | 0.993
AGACCCCGTA | 1.02
ACTTTAATT | 1.03
TGCCTGCAGA | 1.02
GAGCAGGGAG | 1.06
ATAAAAACAA | 1.07
GATCCCGCTG | 1.3
GATAGCTTGG | 0.963
CACAGCCCCT | 1.01
CGGACGTGGG | 1.01
GGCACGTCTG | 1.02
CTCACGGTGA | 1.13
AAATGAGTCC | 0.992
ACTCTTAGAT | 1.11
AACGAATAGA | 1.01
AAGGTAATGC | 1.24
GCTCTACCCT | 1.11
TGAAGCCATA | 1.08
TCGGTCAGAT | 1
TATGCTCCAA | 1.02
ACCTGGTGAG | 1.1
AACCAGAGGT | 0.999
TGTACTTGCA | 1.02
CCAAGGATCA | 1.04

Sequence | switch fluorescence ratio
CTGGGTCGCC | 0.979
CCTTTGACAA | 4.07
AGCTAATCTT | 0.98
CACCTGGAGA | 1.06
GCAAGGTCCG | 1.1
ACATTCATGG | 0.981
CAGACTGCTT | 0.963
CGTTCTTCAT | 0.992
ACGGCGGCAG | 1.03
ATTCCTTGC | 1.53
AATTAGTGG | 1.03
CACTCTGAGA | 1
TCAAAGCGGC | 1.07
TGCAATAAGC | 1.4
GCAACCTAGG | 1.03
ATGGAATTGG | 0.939
GCTGACTCGT | 0.967
TTGGTAGTAC | 1.32
GGGAAACGGA | 0.987
TCCGCATAGC | 1.88
AACAGGGTGC | 1.08
TAGGTTTGAG | 1.01
GCTGATGGTA | 1.05
GGTGCTAGAG | 1.02
TTTCATTCGC | 1.61

Sequence | switch fluorescence ratio
TTAAAGGCAA | 1.11
ACTGTAGATT | 1.15
GGGTCACAGT | 1.01
AGGAAAAATG | 1.03
CCGTTTGTGG | 0.975
AATGTCGGG | 1
AGCTAGGA | 1.03
CTAGCCTGGG | 0.985
CAAACTTCGG | 0.989
CGTGCATGCA | 0.931
TGTCTGAGAT | 1.07
AGGTTTATC | 0.972
GATTGACAAA | 1.06
CTGATCGGAT | 0.991
CCAAGAGCAG | 1.46
TAGGGGACCT | 1.29
GGGTGAAAT | 0.998
ATACGTAGCT | 1.12
GGCAAAGAAT | 0.948
CAGCGGCCGT | 1.02
GTTGTCATCA | 1
TTAGTGATGA | 1.04
GGGTACTAAT | 0.966
CCCATTACTG | 1.34
TCTTGGCAGA | 1.03
